The results in this text go back to publication PMC13083723 (Patterns, 2026).

The whole screen tested about 5,400 compounds, of which about 190 (3.5%) showed an effect of 50% or more. Some of the results follow. Starred links: 1 amine or outer side, 2 acyl side, 3 side chain; linkers in the order of their positions; H or OH if unused. Positions of bridges follow the written chain, without caps; N, C: chain ends. Non-standard residues stand in square brackets, D forms with d. Residues, ends and D or L forms follow the SMILES beside them. Chains are numbered I, II in the order given. Actinocin(9to1) = Cc1c2oc3c(C)ccc(C(=O)[*:1])c3nc-2c(C(=O)[*:2])c(N)c1=O; NMeV = CN[C@H](C(=O)O)C(C)C; Sar = CNCC(=O)O

For this experiment, the system named is Vero-E6. The experiment can be described thus: primary screen, phospholipidosis by LipidTOX staining; higher = more effect of the substance. The conditions noted are these: 10 µM. In outline: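 Drug-induced phospholipidosis detected with HCS LipidTOX Red reagent in Vero-E6 cells. Compounds tested at 10 μM, with amiodarone (10 μM) as positive control and DMSO (0.1 v/v %) as vehicle.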
In the case of `Cc1nccn1CC1CCc2c(c3ccccc3n2C)C1=O` (stereo not shown), the result_ITMP was -1.72%.
With `NC(=O)c1cnc2[nH]ccc2c1N[C@H]1C2CC3CC1C[C@](O)(C3)C2` the figure was -1.38%; with `OCC(O)[C@H]1O[C@@H]2O[C@H](C(Cl)(Cl)Cl)O[C@@H]2[C@H]1O` (stereo partly shown), -13.7%; with `COc1cccc([C@]2(O)CCCC[C@H]2CN(C)C)c1`, 1.12%.
With `CC(=O)NC[C@H]1CN(c2ccc(N3CCOCC3)c(F)c2)C(=O)O1` the figure was -4.92%.
To `CCCCC1(C2CCCC2)Cc2cc(OCCCC(=O)O)c(Cl)c(Cl)c2C1=O` (stereo not shown) belongs -3.19%; to `O=c1nc[nH]c2c([C@@H]3N[C@H](CO)[C@@H](O)[C@H]3O)c[nH]c12`, -0.15%.
Take `Cc1c2oc3c(C)ccc(C(=O)N[C@@H]4C(=O)N[C@H](C(C)C)C(=O)N5CCC[C@H]5C(=O)N(C)CC(=O)N(C)[C@@H](C(C)C)C(=O)O[C@@H]4C)c3nc-2c(C(=O)N[C@@H]2C(=O)N[C@H](C(C)C)C(=O)N3CCC[C@H]3C(=O)N(C)CC(=O)N(C)[C@@H](C(C)C)C(=O)O[C@@H]2C)c(N)c1=O` (I: TVP[Sar][NMeV] / II: TVP[Sar][NMeV]; ester I:1-I:C, II:1-II:C; linker I:N-II:N via Actinocin(9to1)): the result_ITMP came to 10.9%.
With `CC(C)Cc1ccc([C@@H](C)C(=O)NS(C)(=O)=O)cc1` the figure was -1.78%; with `CCOc1ccc(S(=O)(=O)[O-])c2cccnc12`, -2.55%.
With `COc1cc(CN2CCN(c3ccc(F)cc3)CC2)cc(OC)c1OC` the figure was -5.69%; with `COc1cc(C2Oc3ccc(C4Oc5cc(O)cc(O)c5C(=O)C4O)cc3OC2CO)ccc1O` (stereo not shown), -1.08%.
With `C=C1CC[C@@]2(O)[C@H]3Cc4ccc(O)c5c4[C@@]2(CCN3CC2CC2)[C@H]1O5` the figure was -4.83%; with `O=S(=O)(c1cccc2c(Cl)cccc12)N1CCCNCC1`, 47.2%; with `Clc1cccc(-n2nnnc2NCc2ccccc2Oc2ccccn2)c1Cl`, -2.05%.
With `CC1(C)CC(=O)C(C2C3=C(CC(C)(C)CC3=O)Oc3ccccc32)C(=O)C1` (stereo not shown), the result_ITMP is on record as -1.83%.
On to `CN1CC(=O)N=C1NC(=O)Nc1cccc(Cl)c1`, for which the result_ITMP was -1.76%.
With `CCOCCn1c(N2CCCN(C)CC2)nc2ccccc21` the figure was 3.32%; with `CC[C@]12C=CCN3CC[C@@]4(c5cc([C@@]6(C(=O)OC)C[C@H]7C[C@@H](C(C)(F)F)CN(Cc8c6[nH]c6ccccc86)C7)c(OC)cc5N(C)[C@H]4[C@@](O)(C(=O)OC)[C@@H]1OC(C)=O)[C@@H]32`, 49.7%.
To `CC[C@H](C)C(=O)O[C@H]1C[C@H](O)C=C2C=C[C@H](C)[C@H](CC[C@@H](O)C[C@@H](O)CC(=O)O)[C@H]21` belongs 3.18%; to `Fc1ccc(C(OCCN2CCN(C/C=C/c3ccccc3)CC2)c2ccc(F)cc2)cc1`, 20.6%.
Regarding `O=C1CC2(CCCC2)CC(=O)N1CCCCNCC1COc2ccccc2O1` (stereo not shown), the result_ITMP is given as -0.42%.
To `CC1=C(C(=O)O)N2C(=O)[C@@H](NC(=O)[C@H](N)c3ccccc3)[C@H]2SC1` belongs 0.57%; to `O=[N+]([O-])c1ccc(Cl)c([N+](=O)[O-])c1`, 18.8%; to `Cc1cccc(C)c1NC(=O)C[N+](C)(C)C`, 1.04%.
As to `c1ccc2c(c1)OC[C@H](CNCCCOc1ccc3c(c1)OCO3)O2`, the result_ITMP is 2.27%.
With `O=C(OCCN1CCCCC1)c1c[nH]c2ccccc12` the figure was 2.28%; with `Nc1ccccc1NC(=O)c1ccc(CNc2nccc(-c3cccnc3)n2)cc1`, 24.7%; with `Cc1ccc(S(=O)(=O)/C=C/C#N)cc1`, -2.85%.
Consider `Cn1nc(-c2ccc(C(F)(F)F)cc2)nc2c(=O)n(C)c(=O)nc1-2`, for which the result_ITMP is 1.4%.
With `O=C1c2cc(Cl)ccc2OC2CCON12` (stereo not shown) the figure was -3.01%; with `O=[N+]([O-])O[C@H]1CO[C@H]2[C@@H]1OC[C@H]2O[N+](=O)[O-]`, -2.72%; with `N=C(N)Nc1ccc(Cl)cc1`, -3.38%.
`Nc1nc(Nc2ccccc2)nc2c1ncn2[C@@H]1O[C@H](CO)[C@@H](O)[C@H]1O`: the result_ITMP is -1.76%.
To `O=S1(=O)CCN(CN2CCS(=O)(=O)NC2)CN1` belongs -1.83%.
`COc1cc2cc(c1Cl)N(C)C(=O)C[C@H](OC(=O)C(C)C)[C@]1(C)O[C@H]1[C@H](C)[C@@H]1C[C@@](O)(NC(=O)O1)[C@H](OC)/C=C/C=C(\C)C2`: the result_ITMP is listed as -0.8%.
To `Cc1nc(C)c(C)nc1C` belongs -1.64%; to `NS(=O)(=O)C#Cc1ccccc1`, -6.54%.
With `CO[C@@H]1[C@H](O)[C@@H](CO)O[C@H]1n1cnc2c(NC3CCCCC3)ncnc21` the figure was -1.44%; with `Cc1ccc(Cl)c(OCC(O)CNC(C)C)c1` (stereo not shown), 21.7%.
Consider `Cc1cc(Nc2nc(N[C@@H](C)c3ncc(F)cn3)ncc2Cl)n[nH]1`, for which the result_ITMP is reported as -1.15%.
With `Nc1c(CC(=O)[O-])cccc1C(=O)c1ccc(Br)cc1` the figure was 0.95%; with `CC(C)C1C2CCC(C2)C1N` (stereo not shown), 1.94%; with `O=C(NC(=O)c1c(F)cccc1Cl)NC1c2ccccc2-c2ccccc21`, -1.9%.
With `Cc1ccc(C(=O)C(C)CN2CCCCC2)cc1` (stereo not shown) the figure was -4.52%; with `CC(C)(O)CNc1nc(Nc2ccnc(C(F)(F)F)c2)nc(-c2cccc(C(F)(F)F)n2)n1`, -2.26%; with `COc1ccccc1N1CCN(CC(O)COc2cc(OC)c(OC)c(OC)c2)CC1` (stereo not shown), 0.17%.
To `N#Cc1cccc(C(=O)Nc2cc(-c3ccccc3)nn2-c2ccccc2)c1` belongs 13%; to `O=C(CCCCC(=O)Nc1c(I)cc(I)c(C(=O)O)c1I)Nc1c(I)cc(I)c(C(=O)O)c1I`, -4.37%.
Turning to `C[C@@H](C(=O)O)c1ccc(-c2ccccc2)c(F)c1`, the result_ITMP is -1.34%.
To `CC(Cc1ccc(O)c(O)c1)C(C)Cc1ccc(O)c(O)c1` (stereo not shown) belongs -7.08%; to `C[C@H](O)[C@H](O)[C@H]1CNc2[nH]c(N)nc(=O)c2N1`, -0.69%.
To `CC1CCC(O)C/C1=C\C=C1/CCCC2(C)C1CCC2C(C)/C=C/C(C)C(C)C` (stereo not shown) belongs 0.34%.
Turning to `N[C@@H](CCNCc1ccc(Cl)cc1)C(=O)N1CCCCC1`, the result_ITMP is reported as 48.5%.
In the case of `C[C@@H](Oc1cc(-c2cnn(C3CCNCC3)c2)cnc1N)c1c(Cl)ccc(F)c1Cl`, the result_ITMP was 75%.
With `O[C@H]1CC[C@H](Nc2nc(-c3ccccc3)nc3[nH]ccc23)CC1` the figure was -6.29%.
`C#C[C@]1(O)CC[C@H]2[C@@H]3CCC4=CC(=NO)CC[C@@H]4[C@H]3CC[C@@]21CC` (mixture of isomers): the result_ITMP is given as -0.74%.
To `CCN(CC)CCCN(c1ccccc1)C1Cc2ccccc2C1` belongs 51.9%.
With `Cc1cc(Nc2ncc(Cl)c(Nc3ccccc3S(=O)(=O)C(C)C)n2)c(OC(C)C)cc1C1CCNCC1` the figure was 50.9%.
To `COCCCOc1cc(C[C@@H](C[C@H](N)[C@@H](O)C[C@H](C(=O)NCC(C)(C)C(N)=O)C(C)C)C(C)C)ccc1OC` belongs 2.65%.
Take `N#CC[C@@H](C1CCCC1)n1cc(-c2ncnc3[nH]ccc23)cn1`: the result_ITMP was -6.34%.
With `OCCC#Cc1nc(-c2ccc(F)cc2)c(-c2ccncc2)n1CCCc1ccccc1`, the result_ITMP is listed as 3.49%.
To `C#C[C@]1(OC(C)=O)CC[C@H]2[C@@H]3CCC4=CC(=O)CC[C@@H]4[C@H]3CC[C@@]21C` belongs -3.91%; to `CCCCOC(=O)c1ccc(O)cc1`, 1.55%.
Consider `CCCc1nc2c(C)cc(-c3nc4ccccc4n3C)cc2n1Cc1ccc(-c2ccccc2C(=O)O)cc1`, for which the result_ITMP is given as -12.6%.
With `CC(C)(C)C1CCc2c(sc(NC(=O)c3ccco3)c2C(=O)O)C1` (stereo not shown) the figure was -2.3%; with `Cc1noc(C)c1-c1cc(O)cc(C(O)c2ccccc2)c1` (stereo not shown), -0.42%; with `COC1(CS(=O)c2ccccc2)CCN(CCc2c[nH]c3ccc(F)cc23)CC1` (stereo not shown), 14.5%.
To `CC1=CC(=O)c2ccccc2C1=O` belongs -3.67%.
On to `Cc1ccc(C(=O)N(CCCN)[C@@H](c2nc3cc(Cl)ccc3c(=O)n2Cc2ccccc2)C(C)C)cc1`, for which the result_ITMP is 75.7%.
As to `Nc1nccc(-c2ccc3noc(-c4ccc(Cl)cc4)c3c2)n1`, the result_ITMP is on record as 0.29%.
`CCCC(C)C1(CC)C(=O)N=C([S-])NC1=O` (stereo not shown): the result_ITMP worked out at 0.1%.
In the case of `CC[N+](CC)(CCNC(=O)C(=O)NCC[N+](CC)(CC)Cc1ccccc1Cl)Cc1ccccc1Cl`, the result_ITMP is listed as -0.68%.
For `COc1cc2ncnc(Nc3ccc(F)c(Cl)c3)c2cc1NC(=O)/C=C/CN1CCCCC1`, the result_ITMP stood at 19.4%.
With `CC(C)N(CCc1c[nH]c2ccccc12)C(C)C` the figure was 6.36%; with `CCCCC1C(=O)N(c2ccccc2)N(c2ccccc2)C1=O`, -3.37%; with `C[C@@H]1C(=O)O[C@H]2[C@H](O)C34C5C[C@@H](C(C)(C)C)[C@]36[C@@H](OC(=O)[C@@H]6O)O[C@@]4(C(=O)O5)[C@@]12O` (stereo partly shown), -1.63%.
To `C[C@]12C=CC(=O)C=C1CCC1C2C(=O)C[C@@]2(C)C1CC[C@]2(O)C(=O)CO` (stereo partly shown) belongs -1.73%; to `CN1C2CCC1CC(OC(c1ccccc1)c1ccc(Cl)cc1)C2` (stereo not shown), 98.3%.
To `O=S(=O)(c1ccccc1F)N1CCOc2c(N3CCNCC3)cccc21` belongs 36.8%; to `O=C(Nc1ccccc1)OCC(CN1CCCCC1)OC(=O)Nc1ccccc1` (stereo not shown), 54.4%.
With `COc1cc2c(cc1OC)-c1c(C)c3ccc(OC)c(OC)c3c[n+]1CC2`, the result_ITMP was -0.7%.
To `CC1(C)C(=O)N(CCN2CCC(C(=O)c3ccc(F)cc3)CC2)c2ccccc21` belongs -0.9%.
With `CC(C)(C)OC(=O)N[C@H]1CCCCC/C=C\[C@@H]2C[C@@]2(C(=O)NS(=O)(=O)C2CC2)NC(=O)[C@@H]2C[C@@H](OC(=O)N3Cc4cccc(F)c4C3)CN2C1=O` the figure was -2.86%; with `CCCN(CCC)CCc1ccc(OC)c(OCCc2ccccc2)c1`, 32.6%.
